Hit rate of the full screen: of about 310,000 compounds, about 2,200 (0.71%) showed an effect of 50% or more. The effect is printed as a negative number. The list shows a part of the results.

This assay deals with human ether-à-go-go-related gene (hERG) potassium channel (human, UniProt Q12809). The experiment in a line: primary screen, population patch clamp on CHO cells stably expressing hERG.
human ether-à-go-go-related gene (hERG) potassium channel, sequence (Q12809 whole entry, looked up): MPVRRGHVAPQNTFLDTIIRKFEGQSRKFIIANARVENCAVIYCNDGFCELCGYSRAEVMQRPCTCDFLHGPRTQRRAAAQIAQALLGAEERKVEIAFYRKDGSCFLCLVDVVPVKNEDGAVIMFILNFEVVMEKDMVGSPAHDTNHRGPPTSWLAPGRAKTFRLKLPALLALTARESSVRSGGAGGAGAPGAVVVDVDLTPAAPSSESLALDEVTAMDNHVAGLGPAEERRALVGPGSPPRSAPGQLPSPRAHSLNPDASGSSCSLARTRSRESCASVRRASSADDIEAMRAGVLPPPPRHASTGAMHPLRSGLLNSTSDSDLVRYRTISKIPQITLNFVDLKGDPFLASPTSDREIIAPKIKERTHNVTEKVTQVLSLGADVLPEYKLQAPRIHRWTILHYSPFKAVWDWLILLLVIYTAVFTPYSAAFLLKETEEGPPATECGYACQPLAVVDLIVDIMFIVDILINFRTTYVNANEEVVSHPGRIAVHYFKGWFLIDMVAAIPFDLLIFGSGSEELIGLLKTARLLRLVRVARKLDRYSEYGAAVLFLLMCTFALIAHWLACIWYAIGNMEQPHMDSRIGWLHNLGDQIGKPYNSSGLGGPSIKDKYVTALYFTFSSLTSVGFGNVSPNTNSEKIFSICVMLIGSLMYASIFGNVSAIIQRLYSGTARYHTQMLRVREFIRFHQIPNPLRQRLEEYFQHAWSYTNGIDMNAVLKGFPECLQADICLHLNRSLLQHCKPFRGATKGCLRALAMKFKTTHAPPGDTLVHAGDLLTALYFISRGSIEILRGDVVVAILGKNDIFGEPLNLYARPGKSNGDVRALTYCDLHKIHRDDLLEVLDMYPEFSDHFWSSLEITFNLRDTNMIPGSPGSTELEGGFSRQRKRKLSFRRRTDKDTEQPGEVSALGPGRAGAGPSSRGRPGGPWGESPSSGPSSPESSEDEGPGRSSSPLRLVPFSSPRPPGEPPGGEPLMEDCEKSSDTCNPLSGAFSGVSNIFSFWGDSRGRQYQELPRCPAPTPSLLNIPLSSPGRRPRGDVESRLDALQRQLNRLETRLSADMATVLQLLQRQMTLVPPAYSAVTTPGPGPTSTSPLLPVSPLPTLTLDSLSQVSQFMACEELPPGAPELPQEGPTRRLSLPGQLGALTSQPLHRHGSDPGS
For the molecule `COC(=O)Nc1nn(-c2ccc(OC)cc2)c(=O)c(C#N)c1C`, the “hERG current change (%, negative = inhibition) at 1uM” value worked out at 12.3%.
Regarding `CCOC(=O)c1c(C)[nH]c(C(=O)C(C)N2CCCC2)c1C` (stereo not shown), the “hERG current change (%, negative = inhibition) at 1uM” value was 2.73%.
On to `O=C(Nc1ccc(Oc2ccccc2)nc1)C1CCCCN1Cc1ccc(O)cc1` (stereo not shown), for which the “hERG current change (%, negative = inhibition) at 1uM” value came out at 11%.
In the case of `CCCCOP(=O)(OCCCC)C1(NS(=O)(=O)c2ccccc2)C=CC(=O)c2ccccc21` (stereo not shown) it was 10.2%.
In the case of `Fc1ccccc1NC(=S)N1CCN(Cc2ccc3c(c2)OCO3)CC1`, the “hERG current change (%, negative = inhibition) at 1uM” value turned out to be 8.15%.
Turning to `NS(=O)(=O)c1ccc(CCNC(=O)c2cccnc2)cc1`, the “hERG current change (%, negative = inhibition) at 1uM” value was 7.88%.
In the case of `Cc1cc2c(NS(=O)(=O)c3ccc(F)cc3)cccc2nn1` it was 12%; in that of `COC(=O)c1ccccc1NC(=O)NCc1c(C)nn(C)c1C`, 17%; in that of `CCCOc1ccc(N2CC(C(=O)Nc3ccccc3F)CC2=O)cc1` (stereo not shown), 4.54%.
As to `O=C1CC(c2ccc(F)cc2)Sc2nc(C34CC5CC(CC(C5)C3)C4)nn21` (stereo not shown), the “hERG current change (%, negative = inhibition) at 1uM” value turned out to be 20.3%.
Regarding `O=C1SC(SCc2ccccc2)=N/C1=C\c1ccc(C(=O)O)cc1`, the “hERG current change (%, negative = inhibition) at 1uM” value is on record as 17%.
On to `O=C(Nc1nnc(Cc2ccc(Cl)cc2)s1)C1CCCO1` (stereo not shown), for which the “hERG current change (%, negative = inhibition) at 1uM” value is reported as 19.6%.
For the molecule `CCCCC(=O)N/N=C/c1c(O)n(-c2cccc3ccccc23)c(=O)[nH]c1=O`, the “hERG current change (%, negative = inhibition) at 1uM” value turned out to be 6.92%.
`N/C(=N\OC(=O)c1ccc(=O)n(Cc2ccc(Cl)cc2)c1)c1ccccn1`: the “hERG current change (%, negative = inhibition) at 1uM” value stood at 0.848%.
The figure for `Nc1cc(=O)[nH]c(=S)n1-c1cccc(C(F)(F)F)c1` is 21.1%; for `O=[N+]([O-])c1ccc(O)c(/C=N/NC(=S)Nc2ccc(Cl)cc2Cl)c1` it is 26.8%; for `CCN1CCn2c3c(c4cc(Br)ccc42)CCCC31.Cl` (stereo not shown) it is 5.59%.
In the case of `O=C(Nc1cc(C(F)(F)F)ccc1N1CCOCC1)C1=NN(c2ccccc2)C(=O)CC1` it was 1.58%; in that of `Cc1ccc(C(=O)Nc2ccc3c(c2)OCO3)cc1S(=O)(=O)N1CCCCC1`, 12.9%; in that of `O=C(CN1CCN(C(=O)c2ccccc2)CC1)Nc1ccc(Cl)cc1F`, -54.8%.
The figure for `Cc1nnc(SCc2ccc(Cl)cc2)nc1/C=C/N(C)C` is -14.8%.
For `COC(=O)c1ccccc1NC(=O)C1CC(=O)N(c2ccccc2)C1` (stereo not shown), the “hERG current change (%, negative = inhibition) at 1uM” value was -9.39%.
The figure for `CCC(C(=O)OCC(=O)Nc1ccc(C(=O)Nc2ccc(OC)cc2)cc1)c1ccccc1` (stereo not shown) is 0.162%.
On to `Cc1ccc(C(=O)NCCN2CCOCC2)cc1C`, for which the “hERG current change (%, negative = inhibition) at 1uM” value is 15.2%.
The figure for `COc1ccccc1N1CCN(S(=O)(=O)c2c[nH]c(=O)[nH]c2=O)CC1` is -8.73%; for `Cc1csc(NC(=O)c2ccccc2)n1` it is 4.74%; for `O=C(/C=C/c1ccc([N+](=O)[O-])cc1)NCCc1ccccc1` it is -8.23%.
As for `COc1ccc(C2(O)CCN(Cc3nnnn3Cc3ccc(F)cc3)CC2)cc1`, the “hERG current change (%, negative = inhibition) at 1uM” value was -2.99%.
In the case of `O=C(NCc1ccccn1)c1cccn1-c1ncc(C(F)(F)F)cc1Cl`, the “hERG current change (%, negative = inhibition) at 1uM” value was 14%.
In the case of `O=c1[nH]c(=O)n(CCC2=CCCCC2)c(O)c1/C=N/Nc1ccccc1` it was 18.2%; in that of `CCOc1ccc2nc(CN3CCN(Cc4ccsc4)C(CCO)C3)ccc2c1` (stereo not shown), -7.92%.
Regarding `COc1ccccc1NS(=O)(=O)NC(=O)c1cn(C)c2ccccc12`, the “hERG current change (%, negative = inhibition) at 1uM” value is given as 17.3%.
In the case of `CCOC(=O)Cc1nnc(NC(=O)COc2ccc(C)cc2)s1` it was 6.81%.
With `COc1cc(/C=C(/C#N)c2ccc(C)cc2)ccc1Oc1ccc([N+](=O)[O-])cn1`, the “hERG current change (%, negative = inhibition) at 1uM” value worked out at 1.31%.
On to `CC(C)C(=O)N(Nc1nc2ccccc2s1)C(=O)C(C)C`, for which the “hERG current change (%, negative = inhibition) at 1uM” value is given as 6.89%.
The figure for `NC(=O)CSc1cn(CCNC(=O)c2cccs2)c2ccccc12` is 12.6%; for `O=C(Nc1cccc(F)c1)NC1(C(=O)N2CCC(O)CC2)CCCCC1` it is 16.8%.
In the case of `O=[N+]([O-])c1ccc(CS(=O)(=O)c2ncn[nH]2)cc1` it was 13.7%.
As to `O=C(c1cccc(C(F)(F)F)c1)C1CCCN(Cc2ccccc2O)C1` (stereo not shown), the “hERG current change (%, negative = inhibition) at 1uM” value came to 13.2%.
The figure for `O=C(NC1CCCC1)c1ccc2nc(-c3ccco3)c(-c3ccco3)nc2c1` is -3.23%.
Consider `Cl.Clc1ccc(OCCCCN2CCc3ccccc3C2)cc1`, for which the “hERG current change (%, negative = inhibition) at 1uM” value is reported as -8.64%.
For `O=C(NCCCn1ccnc1)C(Cc1ccccc1)N1C(=O)c2ccccc2C1=O` (stereo not shown), the “hERG current change (%, negative = inhibition) at 1uM” value is given as -2.93%.
As to `N#CC1CCCc2c1[nH]c1ccc([N+](=O)[O-])cc21` (stereo not shown), the “hERG current change (%, negative = inhibition) at 1uM” value worked out at 15%.
For `CCC(C(=O)Nc1cccc(C(F)(F)F)c1)c1ccccc1` (stereo not shown), the “hERG current change (%, negative = inhibition) at 1uM” value came to 9.56%.
On to `CC(/C=C/c1ccccc1)=N\Nc1nc(-c2ccccc2)cs1`, for which the “hERG current change (%, negative = inhibition) at 1uM” value is reported as 1.94%.
Take `O=[N+]([O-])c1ccc(S(=O)(=O)CC2CSc3nc4ccccc4n32)cc1` (stereo not shown): the “hERG current change (%, negative = inhibition) at 1uM” value came to 4.78%.
In the case of `Cc1ccc(S(=O)(=O)CC#CCOC(=O)c2ccc([N+](=O)[O-])cc2)cc1` it was 4.13%; in that of `COc1ccc(N2CCN(C(=O)C3CCCN(c4ncnc5c4nc4n5CCCCC4)C3)CC2)cc1` (stereo not shown), -11.8%.
For `COc1ccccc1C1CC(c2ccc(Cl)cc2)Nc2nc(N)nn21` (stereo not shown), the “hERG current change (%, negative = inhibition) at 1uM” value is given as -13.9%.
As for `O=[N+]([O-])c1ccc(-c2cnc(SCc3ccccc3Cl)[nH]2)cc1`, the “hERG current change (%, negative = inhibition) at 1uM” value was determined as 9.37%.
The figure for `Cc1cccnc1N1C(=O)c2ccc(C(=O)O)cc2C1=O` is 12.5%; for `O=C1NCCc2c1[nH]c1ccccc21` it is -4.21%; for `S=C1NC[C@H](Cc2ccccc2)N1CCCCC1CCCCC1` it is 0.157%.
As to `Cc1nc(CC(=O)Nc2nccs2)cs1`, the “hERG current change (%, negative = inhibition) at 1uM” value came to 4.66%.
Regarding `Cc1cc(C)nc(NC2=NCCN2C(=S)Nc2c(C)cccc2C)n1`, the “hERG current change (%, negative = inhibition) at 1uM” value stood at 7.82%.
`CN(CC(=O)Nc1ccccc1Cl)C(=O)c1cc(C2CC2)nn1-c1ccccc1`: the “hERG current change (%, negative = inhibition) at 1uM” value was determined as 3.4%.
The figure for `Cc1ccc(C2OC3=C(C(=O)CC(C)(C)C3)C(N)=C2C#N)o1` (stereo not shown) is 5.65%; for `COc1ccc(-c2cc(C)nc(SCC(=O)c3cccc([N+](=O)[O-])c3)n2)cc1` it is -3.64%.
The figure for `CN(C(=O)COc1ccccc1C(=O)NCCOc1ccccc1)c1ccccc1` is 2.67%.
As to `COc1ccc(-c2cn(CCO)c(-c3ccncc3)n2)cc1`, the “hERG current change (%, negative = inhibition) at 1uM” value is listed as 14.8%.
In the case of `Oc1cc(Cl)cc(Cl)c1Cl` it was 10.1%; in that of `CCCN(C(=O)CSc1nnnn1-c1ccccc1OC)C1CCS(=O)(=O)C1` (stereo not shown), -8.85%.
In the case of `Cc1c(C(=O)Nc2ccc(Br)cc2)cnn1C` it was -0.426%; in that of `CC(C)(C)c1nnc(NC(=O)Nc2ccc(Cl)cc2)s1`, 10.3%; in that of `Cc1nc2ccccc2c2c1C(=O)N(C(C)C)C2=O`, 8.94%.
The figure for `Cc1ccc(C)n1-n1c(C)nc2sc(-c3ccccc3)cc2c1=O` is 10.9%; for `COc1ccc(CNC(=O)Cn2nc(C)n3cccc3c2=O)cc1` it is 7.29%.
Take `COc1ccc2[nH]c3c(=O)n(N)c(C)nc3c2c1`: the “hERG current change (%, negative = inhibition) at 1uM” value came out at 1.42%.
In the case of `O=C(Nc1ccc(F)cc1)Oc1ccccc1N1CCOCC1` it was 22.8%.
Take `CCOC(=O)Cn1nnnc1CN(Cc1cccs1)Cc1cc2cc(C)ccc2[nH]c1=O`: the “hERG current change (%, negative = inhibition) at 1uM” value was -1.97%.
As to `CCOC(=O)N1CCC(NC(=O)c2csc3c2CCCC3)CC1`, the “hERG current change (%, negative = inhibition) at 1uM” value was -1.53%.
For the molecule `CC(=O)c1cnc2nc(C)nn2c1C`, the “hERG current change (%, negative = inhibition) at 1uM” value amounted to 10.3%.
The figure for `CC1(C)C(=O)C2(CCCCC2)C(=O)OC1c1cccs1` (stereo not shown) is 18.4%; for `O=C(CCCN1C(=O)/C(=C/c2cccc(Br)c2)SC1=S)Nc1ccccn1` it is 10.2%.
Regarding `O=P(OC1CCCCC1)(OC1CCCCC1)C(O)c1cccnc1` (stereo not shown), the “hERG current change (%, negative = inhibition) at 1uM” value was 3.64%.
For `COC(=O)CNc1ccc2c(c1)OCO2`, the “hERG current change (%, negative = inhibition) at 1uM” value was determined as 11%.
As for `CCCN(CCC)CCNC(=O)c1cc2c(C)nc3ccccc3c2o1`, the “hERG current change (%, negative = inhibition) at 1uM” value is reported as -17.1%.
In the case of `CC1Cc2ccccc2N1CC(=O)NC(=O)NC(C)(C)C` (stereo not shown) it was 8.37%.
`Nc1nc(-c2ccc(Br)s2)c(Br)s1`: the “hERG current change (%, negative = inhibition) at 1uM” value is reported as 15.1%.
Regarding `Cc1ccc(N2C(=O)CC(Sc3ncccn3)C2=O)cc1C` (stereo not shown), the “hERG current change (%, negative = inhibition) at 1uM” value turned out to be 2.97%.
In the case of `O=C(CCNS(=O)(=O)c1ccccc1C(F)(F)F)N1CCN(c2ccccc2O)CC1` it was -7.89%.
For `Cc1cc(OC(=O)c2cc(C(F)(F)F)cc(C(F)(F)F)c2)c([N+](=O)[O-])c(=O)[nH]1`, the “hERG current change (%, negative = inhibition) at 1uM” value was found to be 6.51%.
The figure for `COC(Cc1nnc(SC)n1-c1ccccc1)OC` is -5.89%; for `CC(C)c1ccccc1NC(=O)COC(=O)c1c2c(nc3ccccc13)CCN(Cc1ccccc1)C2` it is 11.3%.
Turning to `Cc1cc(=O)oc2ccc(OCC(=O)N3CCC(C)CC3)cc12`, the “hERG current change (%, negative = inhibition) at 1uM” value was found to be 6.24%.
In the case of `Cc1ccccc1S(=O)(=O)NC1=NCCCCC1` it was 5.13%.
Regarding `COc1ccccc1-c1nnc2n1N=C(c1ccc(O)c(O)c1)CS2`, the “hERG current change (%, negative = inhibition) at 1uM” value is reported as -1.46%.
In the case of `O=C(Nc1cccc(S(=O)(=O)N2CCOCC2)c1)c1cc2ccccc2o1` it was -3.76%; in that of `COc1ccc(CNC(=O)N[C@@H](Cc2c[nH]c3ccccc23)C(=O)O)cc1`, 9.53%; in that of `CCN1CCN(c2ccc(N3CCN(S(=O)(=O)c4cc([N+](=O)[O-])ccc4C)CC3)nn2)CC1`, -17.2%.
The figure for `COc1ccc(NC(=S)N(Cc2cccnc2)Cc2ccco2)cc1` is -3.05%.
